{
  "source": "the supplement of paper PMC11417369",
  "note": "This is one part of the list.",
  "data": [
    {"tested_on": "PF3D7_0420300 AP2 domain 1 (GST-tagged)", "test": "gcPBM binding intensity (ln(normalized median fluorescence intensity)); higher = stronger DNA binding", "in_short": "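For binding intensity, the highest Masliner-normalised natural-log median intensity across replicate spots of either probe orientation was taken. Protein bound to the array was stained with Alexa488 anti-GST antibody and scanned at 488 nm. The protein, GST-tagged P. falciparum DNA-binding domains from E. coli at about 25 μg on average, had been applied for 1 h to an Agilent 4 × 180k array of primer-extended double-stranded 36-bp intergenic genomic probes and negative controls.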", "values": [
      {"sequence": "TGATTTCCAGGTTATTGTACAAAATTAATTTTCGAA [XGTACX_site2491]", "gcPBM binding intensity (ln)": 8.99},
      {"sequence": "AAAAGTTTTATTTAAATGAATTAATCTTTACTATAT [CACACA_negctrl_site282]", "gcPBM binding intensity (ln)": 9.07},
      {"sequence": "TATAGATACATATACACACACACACCCACATATATA [CACACA_site3436]", "gcPBM binding intensity (ln)": 10.2},
      {"sequence": "ATGTATGTGTAACATAGTACTTTTTAAAAGGATATT [XGTACX_site5328]", "gcPBM binding intensity (ln)": 9.15},
      {"sequence": "TATTTTTTATAATAATGTACATATATATATATAATA [XGTACX_site2329]", "gcPBM binding intensity (ln)": 8.99},
      {"sequence": "AATATCATATAAAAATGTACAAATTCTAAAACACGA [XGTACX_site1442]", "gcPBM binding intensity (ln)": 9.65},
      {"sequence": "GTATTCATGCTAAAGGTGCAATAATTTTTATAATAA [GTGCAC_site9603]", "gcPBM binding intensity (ln)": 9.07},
      {"sequence": "AAGATAAAATTATGTAGTACAAAAAAAAATAAAAAA [XGTACX_site139]", "gcPBM binding intensity (ln)": 9.41},
      {"sequence": "ATCAAACCTTTTAAATGTACATTCGGAGTAAAAAAA [XGTACX_site282]", "gcPBM binding intensity (ln)": 8.99},
      {"sequence": "TTAAAAATGTTGGAAAGTACATATTTTTTAAAAGTA [XGTACX_site802]", "gcPBM binding intensity (ln)": 8.85},
      {"sequence": "CGCCTATAAGCTTAGACACACAAATAAATAAATATA [CACACA_site1264]", "gcPBM binding intensity (ln)": 9.02},
      {"sequence": "TATTGGGGGTATAAACACAGTAAGTAAATAAATAAA [CACACA_negctrl_site1680]", "gcPBM binding intensity (ln)": 9.29},
      {"sequence": "TACCTAATTCGGTCCCGTACAAGTTAGTTTCAATTC [XGTACX_site2703]", "gcPBM binding intensity (ln)": 9.18},
      {"sequence": "AAAAAAAAAAAAAAGAGTACACAGACGTTCAAAGGT [XGTACX_site7566]", "gcPBM binding intensity (ln)": 9.8},
      {"sequence": "TGTATGTATTAATGCGCACACAAAAAATAACAATAT [CACACA_site1848]", "gcPBM binding intensity (ln)": 9.65},
      {"sequence": "TATTGATTTAGAAACACACACTCGAAGATGTTTAAC [CACACA_site1129]", "gcPBM binding intensity (ln)": 9.37},
      {"sequence": "TTTAAAAAATGTTATATTATATAATTAAAAAAAAAA [CACACA_negctrl_site1509]", "gcPBM binding intensity (ln)": 8.88},
      {"sequence": "ATATAGATATATAGTAGTACTTGTTATATAAGATAA [XGTACX_site6336]", "gcPBM binding intensity (ln)": 9.25},
      {"sequence": "ACAGAGCTTTAAATACGTACATAATATATATTAAAT [XGTACX_site8221]", "gcPBM binding intensity (ln)": 9.19},
      {"sequence": "ATAAAAAAAAAATAATGTACTTATATATATATATAT [XGTACX_site8282]", "gcPBM binding intensity (ln)": 9.11},
      {"sequence": "ATATATATATATAAATGTACATTGTGTGTTGTAAGA [XGTACX_site2434]", "gcPBM binding intensity (ln)": 9.59},
      {"sequence": "GTATATTATTTACGTTTGCACTTCATTTTATAGTAA", "gcPBM binding intensity (ln)": 9.6},
      {"sequence": "AATGGATGAATGAATGTATGAATGAATGTATGAATG [CACACA_negctrl_site91]", "gcPBM binding intensity (ln)": 9.24},
      {"sequence": "TTCTTCAAAAAAAATTGTACACATCTCTCAAATGTT [XGTACX_site2952]", "gcPBM binding intensity (ln)": 8.88},
      {"sequence": "TATTAATTGTGGCACCTTGTATGTTTACAATGACAT [CACACA_negctrl_site1383]", "gcPBM binding intensity (ln)": 9.32},
      {"sequence": "TTGTTCCACAAAAATTTAGTCAAAAAAAAATAAAAA [TGCATGCA_negctrl_site546]", "gcPBM binding intensity (ln)": 8.79},
      {"sequence": "ACAAAAAAAAAAATAACACACATGGGGGTGTATAAA [CACACA_site3797]", "gcPBM binding intensity (ln)": 9.61},
      {"sequence": "AATGAATAACAATACTATATGATTTTTAATACATTA [XGTACX_negctrl_site42]", "gcPBM binding intensity (ln)": 9.12},
      {"sequence": "TTAAATTTTTTTTTGTGTACGAAAAACAGAAAAAAT [XGTACX_site8625]", "gcPBM binding intensity (ln)": 8.99},
      {"sequence": "TATGTGTATGGGAATGCATGTAAATATGTACATATA [TGCATGCA_site737]", "gcPBM binding intensity (ln)": 9.3},
      {"sequence": "ATATATATATACATATGTACATATAAAATAATTTTG [XGTACX_site3731]", "gcPBM binding intensity (ln)": 9.12},
      {"sequence": "GTATTAGATAAATACACACACAAGCATATATTTTTA [CACACA_site3431]", "gcPBM binding intensity (ln)": 9.76},
      {"sequence": "TCTATTCATTTTGAAGGTACACATTTCTTTATAATA [XGTACX_site6218]", "gcPBM binding intensity (ln)": 9.25},
      {"sequence": "AAAAATATATATATATATATATATATAAGGAATATA [XGTACX_negctrl_site450]", "gcPBM binding intensity (ln)": 9.23},
      {"sequence": "AATATATCATTATATAAACACACAATATGTTTTTTA [CACACA_site9260]", "gcPBM binding intensity (ln)": 9.24},
      {"sequence": "AATAAATATATAAATACACACAAACATACATATATA [CACACA_site9340]", "gcPBM binding intensity (ln)": 9.96},
      {"sequence": "AATACAATATAGTGAAAAATAATTAAATACAATAAG [XGTACX_negctrl_site161]", "gcPBM binding intensity (ln)": 9.6},
      {"sequence": "CGTAAACAATTATGATGTACATAAAATATATATATA [XGTACX_site2705]", "gcPBM binding intensity (ln)": 9.17},
      {"sequence": "TATTTTCATTTGCGCGCACACAATAATAATTTTTGG [CACACA_site3525]", "gcPBM binding intensity (ln)": 9.45},
      {"sequence": "AACAATTATTTATCTACACACTTTTATGTTATTTAC [CACACA_site9]", "gcPBM binding intensity (ln)": 9.7},
      {"sequence": "TAAAAAATATAAATGACACACACTTAAAAACAAAGA [CACACA_site671]", "gcPBM binding intensity (ln)": 9.98},
      {"sequence": "TATAAATTAATGACATGTACATAAAAGTATAGATGT [XGTACX_site6534]", "gcPBM binding intensity (ln)": 9.53},
      {"sequence": "AAATATACAAAATATACACACATATTTATTTATGAT [CACACA_site2051]", "gcPBM binding intensity (ln)": 9.56},
      {"sequence": "TCTTCCCAAATAAAGTGTACATAAATACGAATAATA [XGTACX_site4363]", "gcPBM binding intensity (ln)": 9.15},
      {"sequence": "AAAATTAAAATATATACACACATATATATATTAAAT [CACACA_site4419]", "gcPBM binding intensity (ln)": 9.57},
      {"sequence": "TAATGTATATGTAAATGTACATGTATATTATTTAAA [XGTACX_site1840]", "gcPBM binding intensity (ln)": 9.14},
      {"sequence": "ATCAAAGATAAATTTACACACATATATATATATATA [CACACA_site2969]", "gcPBM binding intensity (ln)": 9.39},
      {"sequence": "AAGATATTTGTATAATGTACAAAACTATATAAAACT [XGTACX_site1433]", "gcPBM binding intensity (ln)": 9.43},
      {"sequence": "TTTATATAATAGTTATGTACTTAAACGAAAGATACA [XGTACX_site8495]", "gcPBM binding intensity (ln)": 9.07},
      {"sequence": "AAATACAAGGGACATGCATACCACTATTTTTTAAAT [TGCATGCA_site588]", "gcPBM binding intensity (ln)": 9.32},
      {"sequence": "AAAGATATTTTTATCTCACACATATAATATATATAT [CACACA_site5478]", "gcPBM binding intensity (ln)": 9.24},
      {"sequence": "TATAGAAAATTTATATGTACATATATATATATATAT [XGTACX_site4451]", "gcPBM binding intensity (ln)": 9.06},
      {"sequence": "TAAAATTTAAGTTATACACACTTAAGTAACATCATC [CACACA_site6395]", "gcPBM binding intensity (ln)": 9.43},
      {"sequence": "TATTTACAGACATGCGCACACATAAATAAATAATAG [CACACA_site2411]", "gcPBM binding intensity (ln)": 9.4},
      {"sequence": "GTTACTGCATACATAACACACATATTCAAAACACAT [CACACA_site3502]", "gcPBM binding intensity (ln)": 9.59},
      {"sequence": "GCATATGTATATAATGTGCACATGGATTATATAAAA", "gcPBM binding intensity (ln)": 9.24},
      {"sequence": "GAACTAATAATGAAAAGTACACATACACATATATAT [XGTACX_site6789]", "gcPBM binding intensity (ln)": 9.58}
    ]}
  ]
}
